# Data taken from the supplement of paper PMC8728848.
# The other results are listed elsewhere or left out.
# B1: Gal 9 (Homo sapiens), O00182 (protein)
# chain: MAFSGSQAPYLSPAVPFSGTIQGGLQDGLQITVNGTVLSSSGTRFAVNFQTGFSGNDIAFHFNPRFEDGGYVVCNTRQNGSWGPEERKTHMPFQKGMPFDLCFLVQSSDFKVMVNGILFVQYFHRVPFHRVDTISVNGSVQLSYISFQNPRTVPVQPAFSTVPFSQPVCFPPRPRGRRQKPPGVWPANPAPITQTVIHTVQSAPGQMFSTPAIPPMMYPHPAYPMPFITTILGGLYPSKSILLSGTVLPSAQRFHINLCSGNHIAFHLNPRFDENAVVRNTQIDNSWGSEERSLPRKMPFVRGQSFSVWILCEAHCLKVAVDGQHLFEYYHRLRNLPTINRLEVGGDIQLTHVQT
# Legend:
# Assay in all cases: glycan array binding signal (z-score within array); higher = stronger binding
# Conditions in all cases: glycan notation: IUPAC condensed, linker removed
# [1] = molecular target: Fuc(a1-2)Gal(b1-4)GlcNAc(b1-6)GalNAc
# In short: (§1)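 Glycan array data came from 3228 arrays in the Consortium for Functional Glycomics database, and only arrays with an available protein sequence were kept. Glycan names were put into IUPAC-condensed notation, and columns mapping to the same glycan were averaged. The binding signal is a within-array Z-score, averaged across arrays of one protein sequence run at different concentrations or buffers and across linkers. A negative Z-score can be read as non-binding.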
# [2] = molecular target: Fuc(a1-2)Gal(b1-4)GlcNAc6S
# In short: as §1
# [3] = molecular target: Fuc(a1-2)Gal(b1-4)[Fuc(a1-3)]GlcNAc
# In short: as §1
# [4] = molecular target: Fuc(a1-2)Gal(b1-4)[Fuc(a1-3)]GlcNAc(b1-2)Man(a1-3)[Fuc(a1-2)Gal(b1-4)[Fuc(a1-3)]GlcNAc(b1-2)Man(a1-6)]Man(b1-4)GlcNAc(b1-4)GlcNAc
# In short: as §1
# [5] = molecular target: Fuc(a1-2)Gal(b1-4)[Fuc(a1-3)]GlcNAc(b1-2)Man(a1-3)[Fuc(a1-2)Gal(b1-4)[Fuc(a1-3)]GlcNAc(b1-2)Man(a1-6)]Man(b1-4)GlcNAc(b1-4)[Fuc(a1-6)]GlcNAc
# In short: as §1
# [6] = molecular target: Fuc(a1-2)Gal(b1-4)[Fuc(a1-3)]GlcNAc(b1-2)[Fuc(a1-2)Gal(b1-4)[Fuc(a1-3)]GlcNAc(b1-4)]Man(a1-3)[Fuc(a1-2)Gal(b1-4)[Fuc(a1-3)]GlcNAc(b1-2)Man(a1-6)]Man(b1-4)GlcNAc(b1-4)GlcNAc
# In short: as §1
# [7] = molecular target: Fuc(a1-2)Gal(b1-4)[Fuc(a1-3)]GlcNAc(b1-3)Gal(b1-4)[Fuc(a1-3)]GlcNAc
# In short: as §1
# [8] = molecular target: Fuc(a1-2)Gal(b1-4)[Fuc(a1-3)]GlcNAc(b1-3)Gal(b1-4)[Fuc(a1-3)]GlcNAc(b1-3)Gal(b1-4)[Fuc(a1-3)]GlcNAc
# In short: as §1
# [9] = molecular target: Fuc(a1-2)Gal(b1-4)[Fuc(a1-3)]GlcNAc(b1-3)GalNAc
# In short: as §1
# [10] = molecular target: Fuc(a1-2)Gal(b1-4)[Fuc(a1-3)]GlcNAc(b1-3)[Neu5Ac(a2-6)Gal(b1-4)GlcNAc(b1-6)]Gal(b1-4)Glc
# In short: as §1
# [11] = molecular target: Fuc(a1-2)Gal3S(b1-4)GlcNAc
# In short: as §1
# [12] = molecular target: Fuc(a1-2)Gal6S(b1-3)GlcNAc
# In short: as §1
# [13] = molecular target: Fuc(a1-2)Gal6S(b1-3)GlcNAc6S
# In short: as §1
# [14] = molecular target: Fuc(a1-2)Gal6S(b1-4)Glc
# In short: as §1
# [15] = molecular target: Fuc(a1-2)Gal6S(b1-4)Glc6S
# In short: as §1
# [16] = molecular target: Fuc(a1-2)Gal6S(b1-4)GlcNAc
# In short: as §1
# [17] = molecular target: Fuc(a1-2)[Gal(a1-3)]Gal
# In short: as §1
# [18] = molecular target: Fuc(a1-2)[Gal(a1-3)]Gal(b1-3)GalNAc
# In short: as §1
# [19] = molecular target: Fuc(a1-2)[Gal(a1-3)]Gal(b1-3)GalNAc(b1-3)Gal(a1-4)Gal(b1-4)Glc
# In short: as §1
# [20] = molecular target: Fuc(a1-2)[Gal(a1-3)]Gal(b1-3)GlcNAc
# In short: as §1
# [21] = molecular target: Fuc(a1-2)[Gal(a1-3)]Gal(b1-3)GlcNAc(b1-2)Man(a1-3)[Fuc(a1-2)[Gal(a1-3)]Gal(b1-3)GlcNAc(b1-2)Man(a1-6)]Man(b1-4)GlcNAc(b1-4)GlcNAc
# In short: as §1
# [22] = molecular target: Fuc(a1-2)[Gal(a1-3)]Gal(b1-3)GlcNAc(b1-2)Man(a1-3)[Fuc(a1-2)[Gal(a1-3)]Gal(b1-3)GlcNAc(b1-2)Man(a1-6)]Man(b1-4)GlcNAc(b1-4)[Fuc(a1-6)]GlcNAc
# In short: as §1
# [23] = molecular target: Fuc(a1-2)[Gal(a1-3)]Gal(b1-3)GlcNAc(b1-3)GalNAc
# In short: as §1
# [24] = molecular target: Fuc(a1-2)[Gal(a1-3)]Gal(b1-3)GlcNAc(b1-6)GalNAc
# In short: as §1
# [25] = molecular target: Fuc(a1-2)[Gal(a1-3)]Gal(b1-4)Glc
# In short: as §1
# [26] = molecular target: Fuc(a1-2)[Gal(a1-3)]Gal(b1-4)GlcNAc
# In short: as §1
# [27] = molecular target: Fuc(a1-2)[Gal(a1-3)]Gal(b1-4)GlcNAc(b1-2)Man
# In short: as §1
# [28] = molecular target: Fuc(a1-2)[Gal(a1-3)]Gal(b1-4)GlcNAc(b1-2)Man(a1-3)[Fuc(a1-2)[Gal(a1-3)]Gal(b1-4)GlcNAc(b1-2)Man(a1-6)]Man(b1-4)GlcNAc(b1-4)GlcNAc
# In short: as §1
# [29] = molecular target: Fuc(a1-2)[Gal(a1-3)]Gal(b1-4)GlcNAc(b1-2)Man(a1-3)[Fuc(a1-2)[Gal(a1-3)]Gal(b1-4)GlcNAc(b1-2)Man(a1-6)]Man(b1-4)GlcNAc(b1-4)[Fuc(a1-6)]GlcNAc
# In short: as §1
# [30] = molecular target: Fuc(a1-2)[Gal(a1-3)]Gal(b1-4)GlcNAc(b1-3)GalNAc
# In short: as §1
# [31] = molecular target: Fuc(a1-2)[Gal(a1-3)]Gal(b1-4)GlcNAc(b1-6)GalNAc
# In short: as §1
# [32] = molecular target: Fuc(a1-2)[Gal(a1-3)]Gal(b1-4)[Fuc(a1-3)]Glc
# In short: as §1
# [33] = molecular target: Fuc(a1-2)[Gal(a1-3)]Gal(b1-4)[Fuc(a1-3)]GlcNAc
# In short: as §1
# [34] = molecular target: Fuc(a1-2)[Gal(a1-3)]Gal(b1-4)[Fuc(a1-3)]GlcNAc(b1-3)GalNAc
# In short: as §1
# [35] = molecular target: Fuc(a1-2)[Gal(a1-4)]Gal(b1-4)GlcNAc
# In short: as §1
# [36] = molecular target: Fuc(a1-2)[GalNAc(a1-3)]Gal
# In short: as §1
# [37] = molecular target: Fuc(a1-2)[GalNAc(a1-3)]Gal(b1-3)GalNAc(a1-3)[Fuc(a1-2)]Gal(b1-4)GlcNAc
# In short: as §1
# [38] = molecular target: Fuc(a1-2)[GalNAc(a1-3)]Gal(b1-3)GalNAc(b1-3)Gal(a1-4)Gal(b1-4)Glc
# In short: as §1
binder,measurement,setting,value
B1,glycan array binding signal (z-score),[1],-0.283
same,glycan array binding signal (z-score),[2],0.06
same,glycan array binding signal (z-score),[3],-0.322
same,glycan array binding signal (z-score),[4],-0.263
same,glycan array binding signal (z-score),[5],-0.264
same,glycan array binding signal (z-score),[6],-0.276
same,glycan array binding signal (z-score),[7],-0.312
same,glycan array binding signal (z-score),[8],-0.311
same,glycan array binding signal (z-score),[9],-0.306
same,glycan array binding signal (z-score),[10],-0.308
same,glycan array binding signal (z-score),[11],-0.302
same,glycan array binding signal (z-score),[12],-0.276
same,glycan array binding signal (z-score),[13],-0.319
same,glycan array binding signal (z-score),[14],-0.31
same,glycan array binding signal (z-score),[15],-0.315
same,glycan array binding signal (z-score),[16],-0.331
same,glycan array binding signal (z-score),[17],-0.319
same,glycan array binding signal (z-score),[18],-0.278
same,glycan array binding signal (z-score),[19],-0.307
same,glycan array binding signal (z-score),[20],-0.036
same,glycan array binding signal (z-score),[21],0.637
same,glycan array binding signal (z-score),[22],0.01
same,glycan array binding signal (z-score),[23],-0.256
same,glycan array binding signal (z-score),[24],-0.233
same,glycan array binding signal (z-score),[25],-0.288
same,glycan array binding signal (z-score),[26],-0.178
same,glycan array binding signal (z-score),[27],-0.262
same,glycan array binding signal (z-score),[28],0.9
same,glycan array binding signal (z-score),[29],0.875
same,glycan array binding signal (z-score),[30],0.011
same,glycan array binding signal (z-score),[31],-0.307
same,glycan array binding signal (z-score),[32],-0.315
same,glycan array binding signal (z-score),[33],-0.316
same,glycan array binding signal (z-score),[34],-0.318
same,glycan array binding signal (z-score),[35],-0.319
same,glycan array binding signal (z-score),[36],-0.315
same,glycan array binding signal (z-score),[37],-0.317
same,glycan array binding signal (z-score),[38],-0.221
